The list shows a part of the results.
T1: UNK ZnF1-6 (called full-length) (human, UniProt Q9C0B0 30-357)
T1 sequence: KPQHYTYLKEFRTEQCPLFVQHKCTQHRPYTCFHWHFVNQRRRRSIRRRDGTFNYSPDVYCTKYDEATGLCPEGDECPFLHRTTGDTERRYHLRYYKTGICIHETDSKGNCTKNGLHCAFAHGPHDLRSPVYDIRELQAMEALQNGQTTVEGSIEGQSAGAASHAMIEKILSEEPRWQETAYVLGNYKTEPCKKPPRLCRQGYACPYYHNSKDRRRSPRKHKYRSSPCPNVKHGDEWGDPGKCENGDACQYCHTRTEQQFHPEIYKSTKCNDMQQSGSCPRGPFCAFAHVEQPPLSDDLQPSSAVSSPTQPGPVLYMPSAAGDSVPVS

B1: ENSG00000070961:be:win_4601|3pUTR|ENSG00000070961|bound_else_gene|NA|bound_elsewhere_windowed (ssRNA)
RNA: GGGAGUUCUACAGUCCGACGAUCUCAGACUAUCAAACUACAAGAGAACCUUAGUCUUUUUUGUUUUUGUCUAAACAUGUUAGUUUAGUGAUGUCUUGGUGAACUGUGAGUGAACUGUAUUGAUUUUUCUAAUCUUUAGAGACCCAACAGAGGAUUGAGCAUCA
B2: chr1:201892154:201892255:+|3pUTR|ENSG00000198892|msi1|FALSE|unique (ssRNA)
RNA: GGGAGUUCUACAGUCCGACGAUCUGUUUGUCCCCUCUGGGCUGGGGUGGGGGGAGGGAGGAGGUUCCGUCAGCAGCUGGCAGUAGCCCUCCUCUCUGGCUGCCCCACUGGCCACAUCUCUGGCCUGCUAGAUUAAAGCUGUAACAACAGAGGAUUGAGCAUCA
B3: chr8:100287602:100287712:-|CDS|ENSG00000034677|unk|total|mutant (ssRNA)
RNA: GGGAGUUCUACAGUCCGACGAUCUGUGUGGAUUGCUUACGACAAUAUUUAAGGACCGAAAUCUCUGAAAGCAGAGUUAAUAUCCGUUGCCCAGAAUGUACUGAACGGUUUAAUCCCCAUGAUAUUCGCUUGAUAUUAAGUGAUCAACAGAGGAUUGAGCAUCA
B4: chr10:17315694:17315795:-|3pUTR|ENSG00000148488|unk|FALSE|unique (ssRNA)
RNA: GGGAGUUCUACAGUCCGACGAUCCUUCUUCCUCCCUGUCCAUCCCACCCUCGUCCCCAGAAAAUUCCUAAUCUGUUUUUCUAUAGACAUUUACAUUUUUACACUAUAGACUGUUUACAUUUUUUAGAAUUUUAUAUAAAUGGACAACAGAGGAUUGAGCAUCA
B5: chr14:100881274:100881386:-|CDS|ENSG00000254656|unk|total|mutant (ssRNA)
RNA: GGGAGUUCUACAGUCCGACGAUCCGCAGGCAGCAGCAUCACGACAGCCAUCACCCAGCUGCUCACCCAGAUGCCCGCUCUCGCCGGUGCAAACACCAUCCCAGCCCAGGAGCUGGCUGAGCUGUUCCUGGGCCCUGGCCGCUGCAACAGAGGAUUGAGCAUCA
B6: ENSG00000107863:be:win_2401|CDS|ENSG00000107863|bound_else_gene|NA|bound_elsewhere_windowed (ssRNA)
RNA: GGGAGUUCUACAGUCCGACGAUCUUGGCUUCCAUCCCAUUUAUAGAUGAACCAACUAGCCCUAGCAUUGAUCAUGAUAUUGCACAUAUCCCUGCCUCUGCUGUUAUAUCAGCCUCUACCUCUCAGGUCCCCUCCAUAGCAACACAACAGAGGAUUGAGCAUCA
B7: chr10:87746157:87746259:+|3pUTR|ENSG00000198682|unk|FALSE|unique (ssRNA)
RNA: GGGAGUUCUACAGUCCGACGAUCAACUGAAGACCAAAUCUUAGCAGGUAAAAGCAAUAUUCUUAUACAUUUCAUAAUAAAAUUAGCUCUAUGUAUUUUCUACUGCACCUGAGCAGGCAGGUCCCAGAUUUCUUAAGGCUUUGUCAACAGAGGAUUGAGCAUCA
B8: ENSG00000112936:stop:overlap|stop_codon|ENSG00000112936|stop_codon|NA|stop_codon (ssRNA)
RNA: GGGAGUUCUACAGUCCGACGAUCGAUGCAGAGGGCAGAGCAUCUCUGUCACCAGCAUAAGGCCUUGUGCUGCGGAAACCCAGUAGGCUCCUGGAGGCCCUGGUCAGCUUGCUUGGAAUCCAGCAGGCAGCUGGGGCUGAGUGACAACAGAGGAUUGAGCAUCA
B9: chr7:6690371:6690472:-|3pUTR|ENSG00000164631|msi1|total|mutant (ssRNA)
RNA: GGGAGUUCUACAGUCCGACGAUCUGAAAAAAAAAAAAGAAACCGAAGAUUCCUGCUGUGAAUAAACAUACUUCUUGUGUAAACCGAAACUGUAAAGUCAUCAGGACCGCCCGUUAAGUCGGUAACCUUAAACUCAUGUAAGCACAACAGAGGAUUGAGCAUCA
B10: chr6:89631235:89631336:+|3pUTR|ENSG00000135299|msi1|total|mutant (ssRNA)
RNA: GGGAGUUCUACAGUCCGACGAUCUGAAGUUUGAAAGCUCAGAUUAAGCAAGCCAUGCCAAGAAACUGGACGAUGUGUAAGCCCCGACUCUAAAAUUCAAGAUGUGUGAAAUAAUAUAAGUCAAAAGCAAGAAAAACGUAAUCCCAACAGAGGAUUGAGCAUCA
B11: chr16:11872726:11872856:-|3pUTR|ENSG00000103342|msi1_unk|FALSE|overlapping (ssRNA)
RNA: GGGAGUUCUACAGUCCGACGAUCACAUAAUUGCCUACAAUAAUGAAAACCUACAGGAAUUUUUUUAUUUUUCAUUUUCCCCUUAGGCAUAUUUAGUAUUUUUCCCCCAGGCAGAUCAUUCUGAGUGUGCGAGUGUGUGUGCACCAACAGAGGAUUGAGCAUCA
B12: chr1:186359875:186359976:-|CDS|ENSG00000047410|msi1_unk|total|mutant (ssRNA)
RNA: GGGAGUUCUACAGUCCGACGAUCGGAAACUCAGGAUCAGUUGCUUUUGGAGAAACCCGAGAACAAAAGAAUUAAUAAGUACCCCGAUGAAACCGUGAAAGAAGUGGAAGCCAAAGCACCAAUUUUGAAACGCCAGCGUGAGGACAACAGAGGAUUGAGCAUCA
B13: chr7:152122106:152122213:+|3pUTR|ENSG00000178234|unk|total|mutant (ssRNA)
RNA: GGGAGUUCUACAGUCCGACGAUCAGUGGUUUUUAUCUGAUCAGGAACUUGUCAUGAUUUCCUUUCUCCGACUUCACCGGAGACCGUGCUUUAAAAAAAAAAAAAACUUCUAUUAUUUGUUCCGUAUGUUGUAAGCCGAUCAUUCAACAGAGGAUUGAGCAUCA
B14: chr1:43623430:43623515:+|3pUTR|ENSG00000142949|msi1_unk|total|mutant (ssRNA)
RNA: GGGAGUUCUACAGUCCGACGAUCGGCGGGGAAGGGUGCACCGCUGUUUCCGCUGAGGGACGUGGUGCCGACGUCCCCAAACCCCGCCCGGCUAAGUCAAGAUCAACAUUCCAGGGUUGGUAAUGUUGGAUGAUGAAACAUUCACAACAGAGGAUUGAGCAUCA
B15: chr12:104760787:104760888:+|3pUTR|ENSG00000171310|unk|FALSE|unique (ssRNA)
RNA: GGGAGUUCUACAGUCCGACGAUCUUCUUUUCUAAUGGCAUUGAAACUUUAAAAAAAAUGGAUUCAACUGUUUUUGCAGAAUGUAGAAAGUAUUCUGUGUCCUUGGUUAAAGAAAUCCACUUGUGAAGUGUGCCUGGAAAAUGACAACAGAGGAUUGAGCAUCA
B16: ENSG00000006125:stop:overlap|stop_codon|ENSG00000006125|stop_codon|NA|stop_codon (ssRNA)
RNA: GGGAGUUCUACAGUCCGACGAUCCAUCAGAAACACAGGAGCUAGUCCAGCAGGUCUUGAGUUUGGCAACACAGCUAAAGAAGUAGUCUUGUCUGAGAAGCCACUGAUCUCUGAGGAGACGGACCUUAUUGAGCCAACUCUGCUCAACAGAGGAUUGAGCAUCA
B17: chr5:1253166:1253831:-|three_prime_utr|ENSG00000164362|control|control|control (ssRNA)
RNA: GGGAGUUCUACAGUCCGACGAUCCUCGGCUCCACCCCAGGGCCAGCUUUUCCUCACCAGGAGCCCGGCUUCCACUCCCCACAUAGGAAUAGUCCAUCCCCAGAUUCGCCAUUGUUCACCCCUCGCCCUGCCCUCCUUUGCCUUCAACAGAGGAUUGAGCAUCA
B18: chr1:155263244:155263345:-|CDS|ENSG00000176444|unk|FALSE|unique (ssRNA)
RNA: GGGAGUUCUACAGUCCGACGAUCGUAUCUGACCUCAGAGGCAGAGGAACACCACCAGCUCUUCGAUCUGAUUGAAAGCAUGCUAGAGUAUGAACCAGCUAAGCGGCUGACCUUGGGUGAAGCCCUUCAGCAUCCUUUCUUCGCCAACAGAGGAUUGAGCAUCA
B19: chr1:16124655:16124788:-|3pUTR|ENSG00000142627|msi1|FALSE|unique (ssRNA)
RNA: GGGAGUUCUACAGUCCGACGAUCAGACUGUGAACUUGACUGGGUGAGACCCAAAGCGGUCCCUGUCCCUCUAGUGCCUUCUUUAGACCCUCGGGCCCCAUCCUCAUCCCUGACUGGCCAAACCCUUGCUUUCCUGGGCCUUUGCAACAGAGGAUUGAGCAUCA
B20: chr1:192811693:192811799:+|3pUTR|ENSG00000116741|unk|FALSE|unique (ssRNA)
RNA: GGGAGUUCUACAGUCCGACGAUCCUUGAAUUCAGCCUGGGUGUUCAGGAAACAUCACUCAGAACUAUUGAUUCAAAGUUGGGUAGUGAAUCAGGAAGCCAGUAACUGACUAGGAGAAGCUGGUAUCAGAACAGCUUCCCUCACCAACAGAGGAUUGAGCAUCA
B21: chr1:150144965:150145066:+|3pUTR|ENSG00000136631|msi1|FALSE|unique (ssRNA)
RNA: GGGAGUUCUACAGUCCGACGAUCAGACUCCCAGAGUUGUCCUAACAAUAAGUCUGAGCCCAUCUCAACCCACUUUUCUCCGGUAGUCUUUAUGUAUCUGUUAGCACAAUCACUUCAGUUACUGAUGAAUUUUGUUGGGAUCUGCAACAGAGGAUUGAGCAUCA
B22: chr14:92163265:92163366:+|3pUTR|ENSG00000165934|msi1|total|mutant (ssRNA)
RNA: GGGAGUUCUACAGUCCGACGAUCUAAUAUCAGACUCGAAUUACUAUUUCAUUCUAUUUCAAAUGCUUAUAAAGCUACUAUUGCCGAUUACCGUGUUAAUGCAAAGUUUACAGACUUUUGAUAUGGAAAACCAGAUAAAACAAUCAACAGAGGAUUGAGCAUCA

target: T1, UNK ZnF1-6 (called full-length); experiment: nsRBNS (natural sequence RNA bind-n-seq); RBNS binding buffer (assumed for nsRBNS): 25 mM Tris pH 7.5, 150 mM KCl, 3 mM MgCl2, 0.01% Triton X-100, 500 ug/ml BSA, 20 U/ml SUPERase-In, 4 C; UNK is unkempt and MSI1 is Musashi-1; names of the RNAs are library labels; protein concentration not given here; high values mean tight binding

Binder	binding signal [enrichment R]
B1	2.66
B2	0.818
B3	0.232
B4	25.2
B5	0.571
B6	4.07
B7	18.7
B8	0.329
B9	0.374
B10	0.4
B11	11.3
B12	0.979
B13	0.949
B14	0.368
B15	0.431
B16	0.545
B17	2.26
B18	0.586
B19	1.36
B20	0.394
B21	0.566
B22	0.435
